The whole screen tested about 150,000 compounds, of which about 180 (0.12%) were called active. Inconclusive results, whose numbers are uncertain, are shown with a selection of clear calls. Calls come from the whole dose curve; as a rule, active = well fitted cell-killing curve with a large enough effect; inconclusive = small, poorly fitted or top-dose-only effect, or effect the other way; inactive = flat fitted curve, though single readings scatter. Where the call is inconclusive, the potency comes from a doubtful curve fit.
Assay: GF-AFC viability counterscreen for inhibitors of alpha-synuclein gene (SNCA) expression; note: nearly all actives have a fitted effect of over 30% in size;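 for activity change, negative = cytotoxicity: 0% = DMSO-treated cells and -100% = medium-only wells without cells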
Conditions: HEK-293-SNCA-luc viability, GF-AFC fluorescence, 24 h; activity change, negative = cytotoxicity: at 57.1 µM (top of the series) unless noted
Summary of the method: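 HEK-293-SNCA-luc cells (1500/well) plated 24 h, then exposed 24 h to a dilution series; GF-AFC added 30 min at 37C, fluorescence 405/540 nm; normalised to medium-only and DMSO wells, Hill fit.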
Potency is the fitted concentration of half-maximal effect; tags give direction and shape of the fitted curve.

**Q.** Which Potency does the source give for Cc1noc(C)c1CN1CCNc2cc(-c3ccccc3)ncc2C1 here?
**A.** inactive

**Q.** Which Potency does the source give for COCCn1nc2n(c1=O)CCN(C(=O)c1ncccc1C)CC2 here?
**A.** inconclusive: 0.891 µM [rising, single point]

**Q.** With COc1cc(C2CC(=O)N(Cc3cccc(F)c3)c3ccccc3S2)cc(OC)c1OC (configuration not stated) as the compound, how does the Potency read?
**A.** inconclusive: 35.5 µM [cytotoxic, single point]

**Q.** With Cc1nc(N2CCC(NCCNc3ccncc3C)CC2)c2ccsc2n1 as the compound, how does the Potency read?
**A.** inconclusive: 14.1 µM [cytotoxic, partial curve, poor fit]

**Q.** For CCOC(=O)Cn1c(=N)n(Cc2ccc(C(C)(C)C)cc2)c2ccccc21, which Potency is on record?
**A.** inconclusive: 25.1 µM [cytotoxic, partial curve, poor fit]

**Q.** Which Potency does the source give for O=C(c1ccc(Cl)cc1)N1CCCC(C(=O)N2CCC(c3nc4ncccc4[nH]3)CC2)C1 (configuration not stated) here?
**A.** inconclusive: 7.08 µM [cytotoxic, single point]

**Q.** Which Potency does the source give for NS(=O)(=O)c1ccc(CCNC(=O)CCC2CCN(C(=O)c3ccccc3)CC2)cc1 here?
**A.** inconclusive: 7.08 µM [cytotoxic, single point]

**Q.** Which Potency does the source give for COCCN1C(=O)c2ccccc2C(C(=O)N2CCC(C)CC2)C12CCCC2 (configuration not stated) here?
**A.** inconclusive: 8.91 µM [cytotoxic, partial curve]

**Q.** For COc1ccc2nc([C@H]3CCN(Cc4ccc(F)c(F)c4)C3)[nH]c2c1, which Potency is on record?
**A.** inactive

**Q.** Which activity change, negative = cytotoxicity does the source give for Cc1ccc(Nc2ccnc(N3CCCC(C(=O)NCC4CCCCCC4)C3)n2)cc1 (configuration not stated) here?
**A.** inactive: 4.23% [at 12.5 µM]

**Q.** For Cc1cnc(CC2CCN(C(=O)CCC3CCCC3)C2)n1CC1CC1 (configuration not stated), which Potency is on record?
**A.** inconclusive: 39.8 µM [cytotoxic, single point]

**Q.** For Cc1nc2scc(CC(=O)NC3CC3)n2c(=O)c1-c1cc(C)n(-c2ccccc2F)n1, which Potency is on record?
**A.** inconclusive: 3.16 µM [cytotoxic, full curve, poor fit]

**Q.** With COc1cc(O)cc(OC2OC(CO)C(O)C(O)C2O)c1 (configuration not stated) as the compound, how does the Potency read?
**A.** inconclusive: 26.7 µM [cytotoxic, single point]

**Q.** For COc1ccc(NC(=O)N2C[C@@H]3C[C@H](C2)c2ccc(NS(=O)(=O)c4ccc(OC)cc4)c(=O)n2C3)cc1, which Potency is on record?
**A.** inconclusive: 10 µM [cytotoxic, partial curve, poor fit]

**Q.** For COc1cc(C)c(-c2nc(CN3CCCC(CN)C3)c(C)o2)cc1C (configuration not stated), which Potency is on record?
**A.** inconclusive: 39.8 µM [cytotoxic, single point]

**Q.** With CC1(C(=O)N2CCOCC2)CN(Cc2ccccc2)Cc2ccc(Nc3ccccc3)nc21 (configuration not stated) as the compound, how does the Potency read?
**A.** inactive

**Q.** Which Potency does the source give for CC(=O)c1cccc(NC(=O)C2CCN(c3ncnc4c3nc3n4CCCCC3)CC2)c1 here?
**A.** inconclusive: 7.08 µM [cytotoxic, partial curve, poor fit]

**Q.** With O=C1c2ccccc2-c2onc3c(N4CCN(C5CCCCC5)CC4)cc(NCCO)c1c23 as the compound, how does the Potency read?
**A.** inconclusive: 1.78 µM [cytotoxic, full curve]

**Q.** Which Potency does the source give for CCCN(CCC)C(=O)c1cc2c(=O)n3cccc(C)c3nc2s1 here?
**A.** inconclusive: 22.4 µM [rising, partial curve, poor fit]

**Q.** Which Potency does the source give for Cc1ccc(-c2cn3c(n2)sc2cc(C(=O)NCCCN4CCCCCC4)ccc23)cc1 here?
**A.** inconclusive: 31.6 µM [cytotoxic, single point]

**Q.** Which Potency does the source give for O=C1[C@H]2CN(Cc3ccc(Cl)cc3)C[C@H]2C(=O)N1CCN1CCc2ccccc2C1 here?
**A.** inconclusive: 39.8 µM [cytotoxic, single point]

**Q.** For O=c1cc(-c2cccnc2)oc2c(-c3cn[nH]c3)nccc12, which Potency is on record?
**A.** inactive

**Q.** Which Potency does the source give for O=C(NC1CC1)c1ccccc1OCC1CCCN(Cc2cn[nH]c2-c2cccs2)C1 (configuration not stated) here?
**A.** inconclusive: 11.2 µM [cytotoxic, partial curve, poor fit]

**Q.** With COc1ccc(-c2nc3scc(CCNS(=O)(=O)c4ccc5c(c4)OCCO5)n3n2)cc1OC as the compound, how does the Potency read?
**A.** inconclusive: 25.1 µM [cytotoxic, single point]

**Q.** Which Potency does the source give for NCc1ccccc1-c1cnc2ccccc2c1 here?
**A.** inactive

**Q.** For c1cc(N[C@@H]2CCNC2)nc(-c2cnc3ccc(-c4cn[nH]c4)cn23)c1, which Potency is on record?
**A.** inactive

**Q.** For Cc1ccc2c(c1)N(C(=O)Cn1ccn3nc(-c4ccccc4)c(CO)c3c1=O)CCO2, which Potency is on record?
**A.** inconclusive: 3.55 µM [rising, full curve, poor fit]

**Q.** Which Potency does the source give for COCCNC(=O)c1ccc2c(c1)N(C)C(CC(=O)N1CCCC1)CO2 (configuration not stated) here?
**A.** inactive

**Q.** Which Potency does the source give for C=C1C(=O)O[C@@H]2C[C@@]3(C)C[C@@H](O)C[C@H](C)C3=C[C@H]12 here?
**A.** inconclusive: 1.5 µM [cytotoxic, full curve, poor fit]

**Q.** With Cc1ccsc1CCN1C(=O)N(c2ccccc2)C(=O)C1CC(=O)Nc1ccc(Cl)cc1 (configuration not stated) as the compound, how does the Potency read?
**A.** inconclusive: 14.1 µM [cytotoxic, partial curve, poor fit]

**Q.** Which Potency does the source give for Cc1cnc(C2CCC2)n1C1CCN(C(=O)CCC2CCCC2)CC1 here?
**A.** inconclusive: 15.8 µM [cytotoxic, partial curve]

**Q.** Which Potency does the source give for CCC(Sc1nc2c(sc3ccccc32)c(=O)n1CCc1ccc(OC)c(OC)c1)C(=O)N(CC)CC (configuration not stated) here?
**A.** inconclusive: 7.94 µM [cytotoxic, partial curve, poor fit]

**Q.** Which Potency does the source give for Cc1noc(C)c1C(=O)N1CCC2(CCN(Cc3cc(C(F)(F)F)cc(C(F)(F)F)c3)CC2)CC1 here?
**A.** inconclusive: 0.794 µM [cytotoxic, full curve, poor fit]

**Q.** With O=C(NCCC(c1ccccc1)c1ccccc1)c1cn(C2CCCCC2)nn1 as the compound, how does the Potency read?
**A.** inconclusive: 7.08 µM [cytotoxic, single point]

**Q.** Which Potency does the source give for CCS(=O)(=O)c1ncc(Cl)c(C(=O)N2CCN(c3ccc(OC)cc3)CC2)n1 here?
**A.** active: 14.1 µM

**Q.** For COc1ccccc1N1CCN(CCN(C(=O)c2ccc(I)cc2)c2ccccn2)CC1, which Potency is on record?
**A.** inconclusive: 39.8 µM [cytotoxic, single point]

**Q.** Which Potency does the source give for CNC(=O)CCNc1c(-c2cccc(F)c2)nc2cnccn12 here?
**A.** inconclusive: 28.2 µM [rising, partial curve, poor fit]

**Q.** Which Potency does the source give for CNC(=O)c1cccc(-c2cnc3[nH]cc(CC(=O)Nc4ccccc4Cl)c3c2)c1 here?
**A.** inconclusive: 31.6 µM [cytotoxic, partial curve, poor fit]

**Q.** Which Potency does the source give for CSCCCN1C(=O)CC[C@H]2CN(C(=O)C3(C#N)CC3)CC[C@H]21 here?
**A.** inconclusive: 2 µM [rising, full curve, poor fit]

**Q.** Which Potency does the source give for CC(C)NC(=O)c1ccc(-c2ccc(N3CCCCCC3)nc2)cc1 here?
**A.** inactive

**Q.** Which Potency does the source give for O=S(=O)(Nc1nc2n(n1)C(c1ccc(F)cc1)C=C(c1ccc(Cl)cc1)N2)c1ccccc1 (configuration not stated) here?
**A.** inconclusive: 35.5 µM [rising, partial curve]

**Q.** Which Potency does the source give for Cc1c(NCc2cccnc2)cccc1C(=O)N1CCC2(CCNCC2)CC1 here?
**A.** inconclusive: 5.01 µM [cytotoxic, full curve, poor fit]

**Q.** For COCCCNC(=O)C1CCN(Cc2cc3ccccc3n2Cc2cccc(Cl)c2)CC1, which Potency is on record?
**A.** inconclusive: 22.4 µM [cytotoxic, partial curve, poor fit]

**Q.** For NC(=O)[C@H](Cc1cccs1)NC(=O)[C@@H]1[C@@H](NC(=O)Nc2ccc(F)cc2F)CCN1C(=O)c1cnccn1, which Potency is on record?
**A.** inactive

**Q.** Which Potency does the source give for O=C1OC[C@@H]2CCN(Cc3cccc(Cl)c3)Cc3ccc(F)cc3N12 here?
**A.** inactive

**Q.** For COc1ccccc1-c1ccnc(N[C@H]2CO[C@H]3[C@@H]2OC[C@@H]3NS(C)(=O)=O)n1, which Potency is on record?
**A.** inactive

**Q.** For CC(C)N(CCCCOCC(=O)NS(C)(=O)=O)c1cnc(-c2ccccc2)c(-c2ccccc2)n1, which Potency is on record?
**A.** inconclusive: 0.0423 µM [rising, full curve, poor fit]

**Q.** With CCN(CC)C(=O)Cn1c(=O)n(-c2ccc(Cl)cc2)c(=O)c2c3c(sc21)CCCCC3 as the compound, how does the Potency read?
**A.** inconclusive: 2.82 µM [cytotoxic, single point]

**Q.** For COc1cc(F)ccc1-c1ccnc2nc(C3CCCO3)nn12 (configuration not stated), which Potency is on record?
**A.** inactive

**Q.** For Cc1ccccc1Cn1nnc2c(=O)[nH]c(C3CCCN(C(=O)c4ccc(C(C)(C)C)cc4)C3)nc21 (configuration not stated), which Potency is on record?
**A.** inconclusive: 39.8 µM [cytotoxic, single point]

**Q.** With CN(C)c1cccc(C(=O)NC2CCN(c3cc(-c4ccc(Cl)cc4)[nH]n3)C2)c1 (configuration not stated) as the compound, how does the Potency read?
**A.** inactive

**Q.** For O=C(NCCCc1ccccc1)c1cn2cc(-c3ccccc3)sc2n1, which Potency is on record?
**A.** inactive

**Q.** For COc1ccc(C(=O)N2C[C@@H](CO)[C@H](NC(=O)c3ccccc3)C2)c(OC)n1, which Potency is on record?
**A.** inactive

**Q.** For CC(C)=CCn1c(-c2ccc(F)cc2)cn2cc(C(=O)N3CCCCC3)nc2c1=O, which Potency is on record?
**A.** inconclusive: 31.6 µM [cytotoxic, single point]

**Q.** For COc1ccc([C@H]2C[C@@H](O)[C@@H](O)[C@@H]2NCc2cnn(C)c2)cc1, which Potency is on record?
**A.** inconclusive: 3.16 µM [cytotoxic, full curve, poor fit]

**Q.** For COC[C@@H]1CN(Cc2ccc(F)c(OC)c2)C[C@H]1C(=O)N(C)C, which Potency is on record?
**A.** inconclusive: 22.4 µM [cytotoxic, partial curve, poor fit]

**Q.** For CCN1C(=O)CCc2cc(NC(=O)c3ccc(C(C)C)cc3)ccc21, which Potency is on record?
**A.** inactive

**Q.** For N#CC1CCN(C(=O)c2cc(Br)cn3ccnc23)CC1, which Potency is on record?
**A.** inactive

**Q.** For Cc1ccc(OCCC2CCN(C(=O)Cc3c[nH]c4ccccc34)C2)cc1 (configuration not stated), which Potency is on record?
**A.** inactive

**Q.** With CCOC(=O)c1ccccc1NC(=O)Cn1nnc2sc3c(c2c1=O)CCCC3 as the compound, how does the Potency read?
**A.** inconclusive: 12.6 µM [cytotoxic, partial curve, poor fit]

**Q.** Which Potency does the source give for CC(=O)N1CCc2c(sc3c2c(=O)n(-c2cccc(Cl)c2C)c(=O)n3Cc2ccccc2C)C1 here?
**A.** inconclusive: 14.1 µM [cytotoxic, partial curve, poor fit]

**Q.** Which Potency does the source give for COc1ccccc1OCc1nnc(C(=O)N2CCC[C@@H]2C(c2ccccc2)c2ccccc2)n1-c1ccccc1 here?
**A.** inconclusive: 14.1 µM [cytotoxic, partial curve]

— PubChem BioAssay AID1671193 (National Center for Advancing Translational Sciences (NCATS), 2021)
